B1: Lab322-huFc (Fc fusion)
chain: QLQLVESGGGLVQPGGSLRLSCAASVLNLDYYAITWFRQAPGKEREGVSCIQGRGTSTNYADSVKGRFTISRDRAKKTAYLQMNSLKPEDTATYYCAVRYVSYGRNTACGLLPESVDHWGQGTQVTVSS[human IgG1 Fc with C220S (EU numbers) not listed]
notes: also called recombinant antibody Lab322-huFc
B2: Lab306-huFc (Fc fusion)
chain: QLQLVESGGGLVQPGGSLRLSCVTSGFTLDDYAIGWFRQAPGKEREGVICLTSGGLPKYADSVKGRFTISRDNAKNTVYLRMDSLKPDDTAVYYCAASGATSRWNCPPQYDHWGQGTQVTVSS[human IgG1 Fc with C220S (EU numbers) not listed]
notes: No linker is stated between VHH and Fc; also called recombinant antibody Lab306-huFc

What was measured:
[1] = molecular target: T1, Cyno GUCY2C ECD (his-tagged cynomolgus monkey GUCY2C protein extracellular domain fusion protein) (cynomolgus monkey, UniProt P25092 in part (human entry)); experiment: ELISA, plate coated with monkey GUCY2C-his, OD450
T1 construct: also called monkey GUCY2C-his; monkey GUCY2C-His
T1 chain: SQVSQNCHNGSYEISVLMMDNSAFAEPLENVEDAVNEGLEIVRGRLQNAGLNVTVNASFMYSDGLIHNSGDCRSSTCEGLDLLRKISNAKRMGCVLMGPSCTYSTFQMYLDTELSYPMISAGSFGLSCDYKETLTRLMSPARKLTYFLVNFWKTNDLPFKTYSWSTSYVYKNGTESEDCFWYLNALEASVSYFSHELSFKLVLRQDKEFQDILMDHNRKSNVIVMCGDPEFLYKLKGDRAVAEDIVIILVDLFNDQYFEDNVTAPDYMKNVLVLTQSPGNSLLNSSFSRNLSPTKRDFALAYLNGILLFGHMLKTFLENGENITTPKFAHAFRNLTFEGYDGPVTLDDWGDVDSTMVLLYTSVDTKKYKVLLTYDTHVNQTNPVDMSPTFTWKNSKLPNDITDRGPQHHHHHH
Procedure: A human GUCY2C-his protein was diluted with PBS to a final concentration of 2 μg/mL and then added to a 96-well ELISA plate at 50 μL/well. The plate was sealed with a plastic film and incubated at 4° C. overnight. The next day, the plate was washed 2 times with PBST, and a blocking buffer [PBS+2% (w/w) BSA] was added for blocking at room temperature for 2 h. The blocking buffer was discarded, and the recombinant antibody and positive and negative control antibody with a starting concentration of 100 nM serially diluted by 3 folds were added at 50 μL/well. After incubation at 37° C. for 1 h, the plate was washed 3 times with PBST. A horseradish peroxidase (HRP)—labeled secondary antibody (purchased from Merck, Cat. No. AP113P) was added for incubation at 37° C. for 1 h, and the plate was washed 5 times with PBST. A TMB substrate was added at 50 μL/well for incubation at room temperature for 10 min, and then a stop solution (1.0 M HCl) was added at 50 μL/well. The OD450 nm values were read by an ELISA plate reader (Multimode Plate Reader, EnSight, purchased from Perkin Elmer).
The monkey GUCY2C-his and murine GUCY2C-his proteins were subjected to ELISA and data analysis according to the method described in Example 4.2. The recombinant antibodies Lab306-huFc, Lab322-huFc, and Lab323-huFc have a relatively good binding activity with the monkey GUCY2C-his protein. […]

[2] = molecular target: T2, Human GUCY2C ECD (his-tagged human GUCY2C protein extracellular domain fusion protein) (human, UniProt P25092 in part); experiment: SPR Biacore, antibody on Protein A, antigen injected
T2 construct: also called human GUCY2C-his; human GUCY2C-His
Procedure: The strength of antibody-antigen binding was assayed with a BIAcore 8K instrument using a Protein A capture method. First, Protein A was immobilized onto a CM4 chip (purchased from GE, BR-1005-34) using an amino coupling method. According to the instruction of the Amine Coupling Kit (purchased from GE, BR100633), NHS and EDC were mixed with HBS-EP+pH 7.4 as a mobile phase to activate the chip for about 600 s; the Protein A was diluted to 50 μg/mL with 10 mM sodium acetate (pH 4.5) and injected for 600 s, and finally, the remaining activated sites were blocked with ethanolamine. Then, the affinity of the antibody for the antigen was assayed using a multi-cycle kinetic method; in each cycle, first, the antibody to be tested was captured using the Protein A chip, and then a single concentration of antigen protein was injected. The association and dissociation processes of the antibody with the antigen protein were recorded, and finally, the chip was regenerated using Glycine pH 1.5, wherein the mobile phase was HBS-EP+(10 mM HEPES, 150 mM NaCl, 3 mM EDTA, 0.05% surfactant P20), the flow rate was 30 μL/min, the regeneration time was 30 s, and the assay temperature was 25° C. Finally, according to a 1:1 binding model, the data were analyzed, and the antibody-antigen binding kinetics parameters, including the association rate constant Ka, the dissociation rate constant Kd, the equilibrium dissociation constant KD, and the maximum binding signal Rmax, were fitted.
The association rate (Ka), dissociation rate (Kd), and binding affinity (KD) of the recombinant antibodies Lab306-huFc, Lab322-huFc, and Lab323-huFc with the human GUCY2C protein are shown in Table 5. The positive control antibody has good binding activity at the protein level, but has very weak binding at the cellular level. Lab322-huFc and Lab323-huFc, although weak in affinity, bind well to the cellular level, presumably due to differences in the conformation of the proteins and proteins at the viable cellular level.

[3] = molecular target: T3, human GUCY2C protein, full length, on cells (human, UniProt P25092 24-1073); experiment: FACS on HT55 tumor cells (endogenous GUCY2C), MFI
T3 construct: whole, on cells; also called endogenous tumor cells HT55
Procedure: Then a complete medium was added to stop the digestion, and the cells were blown into a single cell suspension. After counting, the cells were centrifuged, and the cell pellet was resuspended to 2×10⁶ cells/mL in an FACS buffer (PBS+2% fetal bovine serum), and added to a 96-well FACS reaction plate at 100 μL/well. The plate was centrifuged, and the supernatant was discarded. An antibody sample to be tested (diluted in a 3-fold gradient from a starting concentration of 100 nM) was added at 50 μL/well and uniformly mixed with the cells, and the mixture was incubated at 4° C. for 1 h. […] The results were tested and analyzed by FACS (FACS Canto™, purchased from BD) after the plate was centrifuged and washed 3 times with a PBS buffer and resuspended with 100 μL of PBS. Data analysis was performed by software (FlowJo) to obtain the mean fluorescence intensity (MFI) of the cells. Then, analysis was performed by software (GraphPad Prism8), data were fitted, and EC50 values were calculated.
The binding of the recombinant antibody to the endogenous tumor cell HT55 was detected in the same manner.

[4] = molecular target: T2, Human GUCY2C ECD (his-tagged human …); experiment: BLI Gator, antibody on anti-human Fc probe, antigen in solution
Procedure: (§1) Next, we measured the affinity of the recombinant antibody by another method, and the specific procedures were as follows: the binding strength of the antibody to the antigen was assayed by acquiring and analyzing the signal change of the reflection interference spectrum on the surface of the optical probe by using thin film interference technology. First, the probe was equilibrated for 300 s with HBS-T+pH 7.4 (0.02% tween) as the mobile phase. 2 μg/mL of the antibody to be tested was captured by an anti-human FC probe (purchased from ProbeLife, PL168-160003) for 240 s, and then antigen proteins with the concentration of 200 nM and diluted two-fold were injected. Kon for 300 s and Koff for 600 s. The association and dissociation processes of the antibody with the antigen protein were recorded, and finally, the chip was regenerated using Glycine pH 2.0 (purchased from GE), wherein the mobile phase was HBS-T+pH 7.4 (0.02% tween), the regeneration time was 5 s, and the assay temperature was 30° C. Finally, according to a 1:1 binding model, the data were analyzed, and the antibody-antigen binding kinetics parameters, including the association rate constant Ka, the dissociation rate constant Kd, the equilibrium dissociation constant KD, and the maximum binding signal Rmax, were fitted. The association rate (Ka), dissociation rate (Kd), and binding affinity (KD) of the recombinant antibodies with the human GUCY2C and monkey GUCY2C proteins are shown in Table 6.

[5] = molecular target: T1, Cyno GUCY2C ECD (his-tagged cynomolgus …); experiment: as above
Procedure: as §1

| Binder | EC50 (read off the curve) [1] [nM] | Kd [2] [nM] | koff [2] [s⁻¹] | kon [2] [M⁻¹ s⁻¹] | EC50 (read off the curve) [3] [nM] | Kd [4] [nM] | koff [4] [s⁻¹] | kon [4] [M⁻¹ s⁻¹] | Kd [5] [nM] | koff [5] [s⁻¹] | kon [5] [M⁻¹ s⁻¹] |
| --- | --- | --- | --- | --- | --- | --- | --- | --- | --- | --- | --- |
| B1 | ~0.09 | 15.5 | 0.000117 | 7550 | ~0.2 | 0.371 | 7.86e-05 | 212000 | 0.489 | 0.000105 | 216000 |
| B2 | ~0.2 | 1.83 | 0.000276 | 150000 | ~1 | 0.969 | 0.000256 | 264000 | 1.08 | 0.000309 | 285000 |
